The supplement of paper PMC10681739
Over roughly 4,100 sequences, “arbitrary fluorescence units” has its median near 780; the highest 2% begin near 22,000. Some of the results follow.

target: T1, ETS1 (UniProt P14921); assay: ETS1 binding intensity (PBM fluorescence), ETS1 alone (arbitrary fluorescence units); higher = stronger binding; conditions: ETS1 concentration 1 nM; RUNX1 concentration 0 nM
T1 sequence: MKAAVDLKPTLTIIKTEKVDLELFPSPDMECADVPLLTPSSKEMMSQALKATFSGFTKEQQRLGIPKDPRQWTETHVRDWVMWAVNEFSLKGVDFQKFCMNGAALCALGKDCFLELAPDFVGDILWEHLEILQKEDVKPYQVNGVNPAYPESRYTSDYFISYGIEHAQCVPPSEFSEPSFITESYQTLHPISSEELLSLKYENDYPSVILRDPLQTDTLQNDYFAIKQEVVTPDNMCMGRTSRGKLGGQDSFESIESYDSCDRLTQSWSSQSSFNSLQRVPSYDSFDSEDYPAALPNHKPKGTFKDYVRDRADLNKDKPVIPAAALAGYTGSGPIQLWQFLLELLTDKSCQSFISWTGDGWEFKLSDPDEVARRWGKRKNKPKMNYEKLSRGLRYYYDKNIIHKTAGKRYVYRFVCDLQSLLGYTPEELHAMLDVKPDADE
How it was run: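 Double-stranded Agilent 4 × 180k arrays held 36-bp genomic probes whose RUNX1 partner site was mutated, and these were incubated with 1 nM full-length recombinant human ETS1 in the absence of RUNX1 under standard PBM protocols. Bound protein was labelled with anti-ETS1 antibody (Cell Signaling Technology 14069) plus an Alexa488-conjugated secondary and read on a GenePix 4400A, with four spots printed per sequence. Binding level is reported as raw spot fluorescence intensity summarised over replicate spots.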

| Sequence | ETS1 binding intensity |
| --- | --- |
| AGAACTGTGATATGCGCAAACCATTACAGGATGTGA | 511 |
| CGAATGTAAGCACCTCTCGGCCCGGCCGGAAGAAGC | 697 |
| TCCCCACATCCTTTAAAACGATGAGATAACGACATG | 5080 |
| GGCGCCAGAACAGCACCTTTCTTTGTTTCCTCTTCG | 400 |
| TTGCTCCCGGAAGCCCCGCCCGTCCGTGGCTCCTGA | 1350 |
| CTAGTTTCCTGTGGCTGCTATGACAAATGACAACAG | 8190 |
| GTCTCGCACCGTGAACACTGAGCTGAACGGAAATGT | 433 |
| TCCTGCTTCCGCCTCCGCTGCAGCCTCTCCCGAAGA | 8150 |
| GGCTTCTTTTGGGGTGATACAGGGGCTTCCTCTTCG | 479 |
| CCAAATCCACTATCACTAATCATCTTCCTGTCATTC | 748 |
| GCCGATGAGGAAGTGAGGGCCAAGCACACTGCTCAG | 938 |
| ACAGGAAGTCAGCTGAGTACCGAGCAAGGCGCATGC | 1710 |
| CGGGACAGCGACGGGCCAGGTGACCGGAAGAGGCCG | 1770 |
| TTGCGTCACGTCCGGCCTGCGAGTTAGCGCCCACTC | 7820 |
| GGCCGAGGAAGGACCTGGTGTTTTGATGACGGCTGT | 311 |
| TGCTCAGGATGTTTAAAAACAAATCCACGCGTCTAT | 661 |
| TGTTTACTTCCTGGAGGCACTTTGGCTTTTCTTTCT | 5630 |
| AGGTTCCAAACCCCAACCTGCAGCCGGAAGGGGGAC | 531 |
| CTGAGACTCTCTGGTCTGCTTCCTTATCTAGGGGGA | 429 |
| GCACAGGAAAAGCTGCTTTCCGCGTGATAAATTCAA | 870 |
| TCGCTTCCGGTGTCGGTTACAGACTGGGGTTGCCAT | 30000 |
| GCGCCCGAATCCGCTGGCCCGGAAACCCCGAAACGT | 1080 |
| GCCCTCGGAGCCCCAACAACCTCCACTTCCGCCTCC | 2180 |
| GCCACTTCCTGGAAAACAGTAATTATCACACGTCTC | 10600 |
| TCTGGCTTCCTGTCTTAATAGGGCTTTGGGGTGTGC | 13400 |

| Sequence | ETS1 binding intensity |
| --- | --- |
| TGACATGAGGTACAGCACGGCATCCCACATCCTGGA | 480 |
| TCCTGTAGCTTTGGGGTTCCTTGTTTCCTGGGCTGG | 431 |
| GCGTCCTTTGCTGTCTTTTGTCCACGTCCGGGTCAA | 580 |
| GCCTGTTCCGTCCGCAGACTTCCTCTGGCAGCTGCT | 1810 |
| GCTCTGGCGGAAGATGTCCCTTCGGTGCAGCTGCCG | 592 |
| TTAGTAGGAACCCCAAGGCTCTCACAGGATAAACTG | 376 |
| AAGACAACATCCTGCCGGCACAGCCTGCTGGTTACT | 16400 |
| AAACTACTTCCCCATATCATCTGTAGCTTGCACAAC | 1180 |
| GTCGCCGCGCTCCGCTGAATCCGCGTTTCCGGGATT | 1200 |
| CTACAAACGGCTTCCTCCTGCCTAACCCCAACCTCA | 1270 |
| GAAGGCGCACCGCCCCCCGCGCGCCGGGAAGCTCAC | 286 |
| TAGTCCGTCCGGGAACAGCGCAAAAGGGACCCCATG | 505 |
| TGCCGGAAGCCCGCCAGGCACAGGACCAGCAGGGGT | 1720 |
| TGTTAATGCGCGATCTTGCTGTCCGTTTCCGAGATG | 385 |
| CCGAAGAGGAAGCTCCACAGGACCTCCGCCGCCAGC | 694 |
| CTGGGGATGTGTGACACTCAGAGAAACTACAAGGTG | 574 |
| TGTCTGGCCACGGTAAGGGCGGAAAGGGTCTAGGTA | 365 |
| TCCCTCCTTCCGCTCTGGTTTTGGGGTTGCTTGCTG | 6220 |
| CTGTAGTTTCGGTGGCTGTGACGTCGGGAAGTAAGT | 404 |
| CTCCCCGGAACACGCGAGTCTCCTGTCGCTGTTCCA | 473 |
| ATAGACTCAGGAAGTGATTGTCGTAAGATTCTATAT | 1510 |
| TGCCTGGAAGACGGAAGGCAGGTGGCTGGCTCTAGT | 349 |
| TCCCCAGGAATACGACACACCACTTCCCCTACAACA | 637 |
| CCTACCACTGAGGGCAGCGCTTCCGCTTTCCTCCTC | 2680 |
| CGAAGTGCGCCGGTTGGAGCGGAAGCGCACGCCTGC | 1410 |

| Sequence | ETS1 binding intensity |
| --- | --- |
| CTACAGGAAGTTCGAACTGGGCGGAGCCCACTGCAG | 5910 |
| AGGTCTTTTGCATCCTGCAGAACACCAGATGTGTCC | 1140 |
| AGCTTGCCGGAAGCTGGTTGTTCGCTTCGGCGACCA | 4030 |
| GACGCAGGATGAGGTGGAGGTGTAGAATGGGGTGCT | 421 |
| TCCTCCGGATGCCCAGCGGCTGCTGAGATACCTCGG | 825 |
| AGCACCAGTGTTGTCTCTGCTTCCGGTCCTTATGGT | 7490 |
| TGCTTCTGAGGAAGTGATCTGTTGTCAAAGAAAGAA | 679 |
| TCTCTTCCGTTCTCTGGTAGCTTTTTGGTAGCTTTG | 6790 |
| TGCCGTATGTAGGTTGAGGGCATCCTGCTTCGCCAT | 763 |
| CGGGACAGCGGGCCGGAGTTTTGGCGGAAGAGGCCG | 376 |
| ACCTTCCTGGCCCTGGGAGCTGGTTTAAGGTTGCAG | 2790 |
| AAAAGGCACCAGGAAATGACAGCACCGAAGCACGCC | 1670 |
| TTCAGGCGGCAAAGAACAGACCTGCAGGAGGAAATA | 404 |
| GTTTGGGGATTTCTGGTGTCAGGAAACACTTAAGAT | 578 |
| GCTAACGGAACCAGCACGCGGCCACCTCAGGAACCT | 368 |
| ACCTCTCTCACTTCCTACCAGAGAACCCCAGCCAAG | 2790 |
| CTGCAGCGGGGAGTTGCTAGTACAGGAAAAGAGGTC | 451 |
| CTCAGCGGAAGAGCGGGCCTCTGGGCCGAAGTGACC | 1080 |
| GGCGTGGCGGAAGGCGCGCTGGGGCGCTGCTTTCTC | 494 |
| GACCCAGATACGACACCTACCCTGCTTCCTTTTCTA | 612 |
| CGACGTCACTTCCGCTGGTTCAAGCACCGTGAGACT | 21400 |
| GGCTGCGCCGGCTGGGGTGTTCCTCCGACTTCCGGA | 1590 |
| AATAAACAGGAAGGTCTCTTGGAGCTGTGCTCTTGG | 938 |
| TCAGCCACTCGCGGAGGAGGAAGCGTTTTCGGCGCA | 374 |
| ATGTTAACATCCTGCCATGAAAATCGCAAGAAGGGC | 10800 |

| Sequence | ETS1 binding intensity |
| --- | --- |
| CCTCCCGACCGGAAGCCCCGCCAGAGAGCGGGTTGT | 10300 |
| GCATGGCAGTTCTTGGCGTGCGAACCCCTTCCGCCC | 482 |
| CGGACCCGCTGCGTTAACCCAGCCCCGGAAATAACG | 693 |
| CAAATCACATGCCCACCTGGGGGACAGGAAGAGGAC | 475 |
| GGGACAACCTCGGGCCTCGCTCCTCCCCGGACGGGG | 344 |
| GACGCTTCGGTAGCGCTGCTCCTTCCGCCTCCGGCT | 649 |
| AGCACTTCCGTTTGGGCAGGGCTGAGGGCCGGAGGG | 16800 |
| CGGCCCCCGGGGTTGTTAGCGCTTCCGGGGTCGAAG | 3120 |
| TTACGTTAAGGAGGAAACTCTGTGATTAAACTGTAG | 437 |
| ACAAAAAAATCACACACCCAACGGAAACCATAGAGA | 669 |
| TTTAAGGGCGGAAAGGCTTTAGCCGTAAAATGGCTT | 366 |
| AGACGGTTCCGGGGGACCGGCCGCGACTACGGCGGC | 1460 |
| GTGGGGCGGGCTTCCGGCGCTCCCACCGTGAGCCGA | 8140 |
| GGTGGACCTGTGATTTGCAACACAGGAAGAGACTAT | 642 |
| TGCCCTGACTTCCTGGTCCTGTTGTCAAGGATGGGG | 6110 |
| CCTTCTGGGAGCTGTAGTTCTGCAGGCGCGGAAGCC | 311 |
| CTTAAATGGGAAATGTAGGTGTCGTTAAGTCACAAA | 414 |
| GGATTTTGGGGTAGCGAACCCCGGGGCCGGAAGCAG | 1080 |
| TCTCCCTGCCCGCGAGTCAAAGCCACTTCCTTTTCC | 917 |
| CACCTGACTACAAGGCACACGAACATCCTTATCACA | 655 |
| GCTGCAGCGGCGGCGAAGAGACAACTTCCGCCGGAG | 3340 |
| CTGGGGCCTGACGCCCTACGCCTACACTTCCCAGAG | 378 |
| GGCTGTCTTCAGCGCAGACGGGAAGCTGCTCAGCAC | 382 |
| TCTAAATCACTTCCTGTTACAGAAACTACAGGCCTG | 26900 |
| CTATTCGGGAGGCGGGGACAGCGCTTCCGGACCAGG | 2120 |

| Sequence | ETS1 binding intensity |
| --- | --- |
| GCGCGGGAGGAAGCCCCCCAATAATTTCGGGGCTTC | 518 |
| AGCGCTGAGGGGAGGGGGAGCAAGGACCGGACGAGA | 792 |
| GCCGCTGGGTAGGCGGAAGTAGCCGCTGGCATGGCA | 2800 |
| GTGCTAGGACACAGGAAGCGATACCAAAAAGAACAT | 3260 |
| GCGGGCGTGTGAGGGGGCGACGGCGTCCGGGAGGCT | 553 |
| CTTAGCACTTGTAGTCAGCCTGCTTCCGGCTGTGGC | 2100 |
| GACACTTCGGTAGCCTCACTATTTCCTGCTTTAGGA | 3610 |
| CGGCGGCTGCAGGCTGAGCGGCGAGTTTCCGATTTA | 299 |
| GCGTTTCCCCCTTGGGGTTATAGCAGCCACCTCCTC | 1650 |
| GGTTGGTTTGCCCACGCCAGTTCCGCCTTCGCCTGC | 627 |
| CAAGCCAACATCCTGACAGTTTAGAAACTACAGGAG | 2950 |
| TGTAGTTTGGAGGTTTGGGGGATGTGTTTGTTTTGT | 584 |
| CGACTACGGCAGTCCGCGGAATTCTTGTATCCTGTC | 498 |
| CTCTGGGAGGCCGCCGCTTTCCACCGGAAAGAGGGT | 555 |
| TGTAGTCAGGTAGTTAGGCAGGATGTTTCTCACGGC | 688 |
| ATGTCTTTAATCACACTGAGCTTCCGGGCCCTGCAC | 1540 |
| GGAAAGGCAGCAGTGGCAGAGGATGTGCTGGGGGAG | 585 |
| TGTTGGACCCCAGGCAATTGCCTGTTCAGGAAGAGA | 358 |
| TCCTTAATGGTTCCGGCGGCAGGGACCCCAGCGACG | 970 |
| ATGACTTCGAGGAAGTCTTCAGAAACTACAGGCTGA | 459 |
| GGCGCGAGTAAGCCCTGGGACCCTCATCCTGGGGAG | 350 |
| GACAACCCCATCCTGCGCTCGCCCGAGGTGTCTCGG | 869 |
| TGAGAAGGCAGGATAAGTGACCCCATATTTATGCCA | 447 |
| CCGGGGTAAAGCACGACACGACTCCCTTCCGTGTGG | 336 |
| CAGCCTAGTGGGAGTTGTAGTTTCCGCAGCTCTGAG | 570 |
